Test systems include HT29 colon; KM12 colon; RPMI-8226 leukemia; SR leukemia; K-562 leukemia; BT-549 breast; NCI-H226 lung; SK-MEL-5 melanoma; DLD-1 colon; KM20L2 colon; OVCAR-5 ovarian; NCI-H23 lung; OVCAR-8 ovarian; 786-0 renal.
Assay in all cases: NCI anticancer screen, dose series, 48 h

Structures are written as SMILES.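 Exposure lasted 48 hours, with cells grown in 96-well plates and compounds tested at five concentrations. TGI: total growth inhibition.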 Not every entry of the source has a single result; some have several. They are shown here; other results are not. The source may hold further records. A record mostly stands for its own series of concentrations, which the source does not state; a value can be the end of its range.

`COc1ccc(-c2csc3c2-n2cccc2C3=O)cc1`: the TGI was 109 nM and > 100 µM in the experiment on HT29 colon; 1.63 µM and > 26.3 µM with KM12 colon; 1.49 µM and 35.9 µM in the experiment on RPMI-8226 leukemia; 17 nM and > 37.1 µM with SR leukemia; 48.6 nM and > 100 µM in the experiment on K-562 leukemia; 3.72 µM and > 100 µM in the experiment with BT-549 breast. Further, the TGI was 461 nM and > 47.3 µM with NCI-H226 lung; 98.3 nM and 1.71 µM with SK-MEL-5 melanoma.
Turning to `CC[C@@]1(OP(=O)(O)O)C(=O)OCc2c1cc1n(c2=O)Cc2cc3ccccc3nc2-1`, the TGI in the experiment on DLD-1 colon is 2.45 µM and 73.4 µM; with HT29 colon, 4.4 µM and > 100 µM; with KM20L2 colon, 3.73 µM and > 100 µM; in the experiment with OVCAR-5 ovarian, 2.48 µM and 54.9 µM; in the experiment on NCI-H23 lung, 296 nM and 13 µM; with OVCAR-8 ovarian it was 2.11 µM and > 100 µM. For the same compound, the TGI in the experiment on 786-0 renal is 7.75 µM and 298 nM.

Values taken from PubChem BioAssay (NCI).
